From PubChem BioAssay AID624296 (National Center for Advancing Translational Sciences (NCATS), 2012)
Among all 350,000 compounds or so, about 9,900 (2.8%) were called active. This list was built around the results that the source calls inconclusive (neither active nor inactive); the mix of calls is not that of the screen. Calls follow the shape of the dose curve; as a rule, active = well fitted activation curve with a large enough effect; inconclusive = small, poorly fitted or top-dose-only effect; inactive = no such curve, though single readings can be large or run the other way. Potencies of inconclusive entries are left out as doubtful fits.
Potency is read from the fitted curve at half-maximal effect; tags tell the direction and shape of the fitted curve.

Assay: A quantitative high throughput screen for small molecules that induce DNA re-replication in MCF 10a normal breast cells. Also: nearly all actives have a fitted effect of over 50% in size.
Details: MCF 10A DNA re-replication, Hoechst nuclear intensity, 48 h; series mostly up to 46.1 µM
For `c1ccc(-c2ccc(-c3ccccc3)[nH]2)cc1`, the Potency was inconclusive [activator, partial curve, poor fit]. In the case of `OC(CN1CCN(C(c2ccccc2)c2ccccc2)CC1)c1ccc(Br)cc1` (configuration not stated), the Potency is reported as “inactive”. In the case of `CC(C)(O)CCc1c(-c2ccc(O)cc2O)oc2c3c(cc(O)c2c1=O)OC(C)(C)C=C3`, the Potency is reported as inconclusive [activator, single point]. With `O=C(c1cc(-c2cccs2)on1)N1CCN(c2ccc(F)cc2)CC1` the Potency was inconclusive [activator, partial curve, poor fit]. In the case of `Cc1ccccc1CN(c1ccc(C(=O)N2CCc3ccccc3C2)cc1)S(C)(=O)=O`, the Potency is reported as inconclusive [activator, single point]. For `CCCCCCSc1nc(O)c(C2OC(=O)c3c2ccc(OC)c3OC)c(=O)n1CC` (configuration not stated), the Potency was inconclusive [activator, single point]. With `COc1cccc(CN(C)C(=O)COc2ccc(C(=O)c3ccc(Cl)cc3)cc2)c1OC` the Potency was inconclusive [activator, single point]. For `O=C(CSc1ccc2ccccc2n1)N/N=C/c1ccccc1O`, the Potency was inconclusive [activator, partial curve, poor fit]. For `CC1CN(Cc2ccco2)C(=S)NC1=O` (configuration not stated), the Potency was “inactive”. In the case of `COc1cccc(C2C=C(c3cccs3)Nc3ncnn32)c1OC` (configuration not stated), the Potency is reported as “inactive”. With `O=C(NNC(=O)[C@H]1CC=CC[C@H]1C(=O)O)c1ccc(Cl)cc1Cl` the Potency was “inactive”. In the case of `CC(CNC(=O)c1ccc(N)cc1)NC(=O)c1ccc(N)cc1` (configuration not stated), the Potency is reported as inconclusive [activator, single point]. For `Cc1cccn2c(=O)c3cc(C(=O)NCC4CCCO4)c(=N)n(C4CCCCC4)c3nc12` (configuration not stated), the Potency was active: 18.4 µM. For `O=Cc1c(NCc2ccccc2)c2ccccc2[nH]c1=O`, the Potency was inconclusive [activator, single point]. For `C/C(=N\NC(=O)c1cccc(Br)c1)c1ccccn1`, the Potency was active: 2.91 µM. With `O=C(Nc1ccc([N+](=O)[O-])cc1)C1COc2ccccc2O1` (configuration not stated) the Potency was inconclusive [activator, single point]. With `O=C(CN1C2=NCCCN2c2ccccc21)c1ccc2c(c1)OCO2` the Potency was inconclusive [activator, single point]. For `CCOc1ccc(S(=O)(=O)N2CCN(Cc3ccc4c(c3)OCO4)CC2)cc1OCC`, the Potency was “inactive”. In the case of `O=C(N[C@@H](Cc1ccccc1)C(=O)OCc1ccccc1)c1nc[nH]c1C(=O)NC1CCNCC1`, the Potency is reported as “inactive”. In the case of `CCNC(=O)NC(=O)COC(=O)c1cccc(S(=O)(=O)N2CC3(C)CC2CC(C)(C)C3)c1` (configuration not stated), the Potency is reported as inconclusive [activator, full curve, poor fit]. With `Cc1nn(-c2ccccc2)c(Cl)c1/C=N/NS(=O)(=O)c1ccc(Br)cc1` the Potency was inconclusive [activator, single point]. For `O=C(Nc1cc(Cl)cc(Cl)c1)C1CCCC1`, the Potency was inconclusive [activator, single point]. In the case of `Cc1onc(-c2ccccc2)c1CNC(=O)Nc1ccc(C(F)(F)F)cc1`, the Potency is reported as inconclusive [activator, single point]. In the case of `O=C(COc1ccccc1F)Nc1nnc(-c2ccncc2)s1`, the Potency is reported as inconclusive [activator, single point]. With `CN(C)CCCN1c2ccccc2Sc2ccc3ccccc3c21` the Potency was inconclusive [activator, partial curve]. With `N#C/C(=C\c1ccc(F)cc1)C(=O)NC1CCS(=O)(=O)C1` (configuration not stated) the Potency was “inactive”. With `O=C(Nc1nc(-c2ccc(Cl)cc2)cs1)c1cccnc1` the Potency was inconclusive [activator, partial curve, poor fit]. For `COC(=O)N/N=C/c1cc(N=Nc2ccccc2Cl)ccc1O`, the Potency was inconclusive [activator, single point]. With `COc1ccc(-c2[nH]ncc2/C=C(/C#N)C(=O)NC2CCCCCC2)cc1` the Potency was active: 10 µM. In the case of `COc1ccc2nc(N/C(N)=N/C(=S)Nc3c(C)cccc3C)nc(C)c2c1`, the Potency is reported as inconclusive [activator, single point]. In the case of `CCCCCC/C=C/c1ccc(OC)c([C@H]2[C@H]3C=CC[C@@H](C)[C@@H]3C(=O)N2Cc2ccccc2)c1`, the Potency is reported as inconclusive [activator, full curve, poor fit]. In the case of `Nc1ccccc1SCC(=O)Nc1ccc2c(c1)OCCO2`, the Potency is reported as “inactive”. In the case of `NNC(=O)c1[nH]c2ccc(Br)cc2c1-c1ccccc1`, the Potency is reported as inconclusive [activator, full curve, poor fit]. With `COc1ccccc1NS(=O)(=O)c1ccc2ccccc2c1` the Potency was “inactive”. For `O=Cc1c(SCCO)nc2ccccn2c1=O`, the Potency was “inactive”. With `O=C1C=C(c2cccc(Br)c2)C[C@@H](c2ccc(F)cc2)C1` the Potency was “inactive”. For `CCOc1cccc(CN2CCCC(N3CCN(c4cccc(Cl)c4)CC3)C2)c1O` (configuration not stated), the Potency was inconclusive [activator, partial curve, poor fit]. For `O=C(Nc1cc(C(F)(F)F)ccc1N1CCCC1)C1=COCCO1`, the Potency was inconclusive [activator, single point]. In the case of `O=C(NCc1ccccn1)C1CCCN(S(=O)(=O)c2ccccc2)C1` (configuration not stated), the Potency is reported as inconclusive [activator, partial curve, poor fit]. With `CC[C@]12c3[nH]c4ccc(Cl)cc4c3CCN1C(=O)[C@@H](CC(=O)NCCCOC)C[C@@H]2C(=O)N1CCN(C(=O)c2ccco2)CC1` the Potency was inconclusive [activator, full curve, poor fit]. In the case of `CC(C)C[C@H](NC(=O)c1nc[nH]c1C(=O)N[C@@H](CC(C)C)C(=O)OC(C)(C)C)C(=O)OC(C)(C)C`, the Potency is reported as inconclusive [activator, single point]. In the case of `Cn1c(CN2CCCCC2)nc2cc(NC(=O)c3ccc(Cl)cc3)ccc21`, the Potency is reported as active: 23.1 µM. In the case of `Cc1cc(C)cc(C(=O)Nn2cnnc2)c1`, the Potency is reported as inconclusive [activator, single point]. With `Cc1ccc(-n2c(C)cc(C3N=C(N)Nc4nc5ccccc5n43)c2C)c(C)c1` (configuration not stated) the Potency was inconclusive [activator, single point]. In the case of `COc1ccc(/C=N/Nc2nnc(C)n2N)cc1OC(C)=O`, the Potency is reported as inconclusive [activator, single point]. For `Cc1ccc2[nH]c(=O)c(CN(Cc3cccnc3)C(=O)c3ccncc3)cc2c1`, the Potency was inconclusive [activator, single point]. In the case of `CCCOc1ccc(C(=O)OCC(=O)c2c(N)n(C)c(=O)n(C)c2=O)cc1OCC`, the Potency is reported as inconclusive [activator, partial curve, poor fit]. In the case of `Cc1cc(-c2nc(C)c(-c3nnc(SCC(=O)Nc4cc(Cl)cc(Cl)c4)n3C)s2)no1`, the Potency is reported as “inactive”. In the case of `COc1cc(C(=O)Nc2nc3ccccc3s2)ccc1OCc1c(C)noc1C`, the Potency is reported as inconclusive [activator, partial curve, poor fit]. For `N#C/C(=C\c1cccnc1)c1ccccc1[N+](=O)[O-]`, the Potency was “inactive”. In the case of `CC(=O)c1c(C)[nH]c(C(=O)NNC(=O)COc2ccc(Cl)cc2C)c1C`, the Potency is reported as active: 7.08 µM. With `COc1ccc(-c2oc3ccc(N4CCOCC4)cc3c2C#CC2(O)CCCCC2)cc1` the Potency was inconclusive [activator, partial curve, poor fit]. With `Nc1cc(N)c(OCC(F)(F)F)cc1OCC(F)(F)F` the Potency was “inactive”. In the case of `COc1ccc(-c2ccc3c(c2)S(=O)(=O)c2cccc(C(=O)NCc4cc(C)oc4C(F)(F)F)c2C3=O)cc1OC`, the Potency is reported as inconclusive [activator, partial curve, poor fit]. With `CSc1ccc(CCNC(=O)c2nn(C)c3c2CS(=O)(=O)c2ccccc2-3)cc1` the Potency was “inactive”. In the case of `CCOCCn1ccc2c(OCC(=O)NCc3ccccc3)cccc2c1=O`, the Potency is reported as “inactive”. With `O=C(CCN1C(=O)S/C(=C\c2ccccc2)C1=O)N1CCOCC1` the Potency was “inactive”. For `CC(/C=N/NC(=O)c1cc(-c2cccs2)[nH]n1)=C\c1ccccc1`, the Potency was inconclusive [activator, partial curve, poor fit]. For `CCOC(=O)N1CCC(NC(=O)c2ccc3c(c2)N(C)C(=O)/C(=C/c2cccc(OC)c2)S3)CC1`, the Potency was inconclusive [activator, single point]. For `Cc1ccc(-c2nc(N3CCOCC3)sc2C(=O)N2CCOCC2)cc1`, the Potency was “inactive”. For `CCCCN1CCC(=O)NC1=O`, the Potency was inconclusive [activator, single point]. In the case of `CC1CCCCN1C(=O)CSc1nc2cc3c(cc2c(=O)n1Cc1ccc2c(c1)OCO2)OCO3` (configuration not stated), the Potency is reported as inconclusive [activator, partial curve, poor fit]. With `COc1ccc(-c2csc(C3=C(O)CN(Cc4ccc(Cl)cc4)C3=N)n2)cc1OC` the Potency was inconclusive [activator, single point]. With `CN(C)c1ccc(-c2ccc([C@H]3[C@@H]4C=CCC[C@@]4(C)C(=O)N3Cc3ccccc3)c(F)c2)cc1` the Potency was inconclusive [activator, partial curve, poor fit]. In the case of `Nc1ncnc2c1ncn2C1OC(CO)C(O)C1O` (configuration not stated), the Potency is reported as “inactive”. For `CC(C)c1ccccc1NC(=O)COC(=O)c1c2c(nc3ccccc13)CCN(Cc1ccccc1)C2`, the Potency was inconclusive [activator, single point]. In the case of `COc1cccc(-c2cc(C(=O)Nc3cnn(Cc4ccc(F)cc4)c3)no2)c1`, the Potency is reported as inconclusive [activator, single point].
